Some of the results follow.
Columns and labels:
Test in all cases: glycan array binding signal (z-score within array); higher = stronger binding
Conditions in all cases: glycan notation: IUPAC condensed, linker removed
[1] = biological target: Neu5Ac(a2-3)Gal(b1-4)GlcNAc(b1-3)[Neu5Ac(a2-3)Gal(b1-4)GlcNAc(b1-6)]GalNAc
In short: (§1)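 Columns mapping to the same glycan were averaged after glycan names were converted to IUPAC-condensed notation. The data come from 3228 arrays in the Consortium for Functional Glycomics database, limited to those with an available protein sequence. Binding is reported as a within-array Z-score averaged across arrays of one protein sequence and across linkers.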

[2] = biological target: Neu5Ac(a2-3)Gal(b1-4)GlcNAc(b1-6)GalNAc
In short: as §1

[3] = biological target: Neu5Ac(a2-3)Gal(b1-4)GlcNAc(b1-6)[Gal(b1-3)]GalNAc
In short: as §1

[4] = biological target: Neu5Ac(a2-3)Gal(b1-4)GlcNAc(b1-6)[Neu5Ac(a2-3)Gal(b1-3)]GalNAc
In short: as §1

[5] = biological target: Neu5Ac(a2-3)Gal(b1-4)GlcNAc6S
In short: as §1

[6] = biological target: Neu5Ac(a2-3)Gal(b1-4)[Fuc(a1-3)]GlcNAc
In short: as §1

[7] = biological target: Neu5Ac(a2-3)Gal(b1-4)[Fuc(a1-3)]GlcNAc(b1-2)Man
In short: as §1

[8] = biological target: Neu5Ac(a2-3)Gal(b1-4)[Fuc(a1-3)]GlcNAc(b1-3)Gal
In short: as §1

[9] = biological target: Neu5Ac(a2-3)Gal(b1-4)[Fuc(a1-3)]GlcNAc(b1-3)Gal(b1-4)GlcNAc
In short: as §1

[10] = biological target: Neu5Ac(a2-3)Gal(b1-4)[Fuc(a1-3)]GlcNAc(b1-3)Gal(b1-4)[Fuc(a1-3)]GlcNAc(b1-3)Gal(b1-4)[Fuc(a1-3)]GlcNAc
In short: as §1

[11] = biological target: Neu5Ac(a2-3)Gal(b1-4)[Fuc(a1-3)]GlcNAc(b1-3)GalNAc
In short: as §1

[12] = biological target: Neu5Ac(a2-3)Gal(b1-4)[Fuc(a1-3)]GlcNAc(b1-6)[Gal(b1-3)]GalNAc
In short: as §1

[13] = biological target: Neu5Ac(a2-3)Gal(b1-4)[Fuc(a1-3)]GlcNAc(b1-6)[Neu5Ac(a2-3)Gal(b1-3)]GalNAc
In short: as §1

[14] = biological target: Neu5Ac(a2-3)Gal(b1-4)[Fuc(a1-3)]GlcNAc6S
In short: as §1

[15] = biological target: Neu5Ac(a2-3)Gal6S(b1-4)GlcNAc
In short: as §1

[16] = biological target: Neu5Ac(a2-3)Gal6S(b1-4)[Fuc(a1-3)]GlcNAc
In short: as §1

Neu5Ac(a2-3)GalNAc = biological target: Neu5Ac(a2-3)GalNAc
In short: as §1

[17] = biological target: Neu5Ac(a2-3)GalNAc(b1-4)GlcNAc
In short: as §1

[18] = biological target: Neu5Ac(a2-3)[GalNAc(b1-4)]Gal(b1-4)Glc
In short: as §1

[19] = biological target: Neu5Ac(a2-3)[GalNAc(b1-4)]Gal(b1-4)GlcNAc
In short: as §1

[20] = biological target: Neu5Ac(a2-3)[GalNAc(b1-4)]Gal(b1-4)GlcNAc(b1-3)GalNAc
In short: as §1

[21] = biological target: Neu5Ac(a2-3)[Neu5Ac(a2-6)]GalNAc
In short: as §1

Neu5Ac(a2-6)Gal = biological target: Neu5Ac(a2-6)Gal
In short: as §1

[22] = biological target: Neu5Ac(a2-6)Gal(b1-3)GlcNAc(b1-3)[Gal(b1-4)GlcNAc(b1-6)]Gal(b1-4)Glc
In short: as §1

Neu5Ac(a2-6)Gal(b1-4)Glc = biological target: Neu5Ac(a2-6)Gal(b1-4)Glc
In short: as §1

[23] = biological target: Neu5Ac(a2-6)Gal(b1-4)GlcNAc
In short: as §1

[24] = biological target: Neu5Ac(a2-6)Gal(b1-4)GlcNAc(b1-2)Man
In short: as §1

[25] = biological target: Neu5Ac(a2-6)Gal(b1-4)GlcNAc(b1-2)Man(a1-3)Man(b1-4)GlcNAc(b1-4)GlcNAc
In short: as §1

[26] = biological target: Neu5Ac(a2-6)Gal(b1-4)GlcNAc(b1-2)Man(a1-3)[Gal(b1-4)GlcNAc(b1-2)Man(a1-6)]Man(b1-4)GlcNAc(b1-4)GlcNAc
In short: as §1

[27] = biological target: Neu5Ac(a2-6)Gal(b1-4)GlcNAc(b1-2)Man(a1-3)[GlcNAc(b1-2)Man(a1-6)]Man(b1-4)GlcNAc(b1-4)GlcNAc
In short: as §1

[28] = biological target: Neu5Ac(a2-6)Gal(b1-4)GlcNAc(b1-2)Man(a1-3)[GlcNAc(b1-4)][Neu5Ac(a2-6)Gal(b1-4)GlcNAc(b1-2)Man(a1-6)]Man(b1-4)GlcNAc(b1-4)GlcNAc
In short: as §1

[29] = biological target: Neu5Ac(a2-6)Gal(b1-4)GlcNAc(b1-2)Man(a1-3)[Man(a1-6)]Man(b1-4)GlcNAc(b1-4)GlcNAc
In short: as §1

[30] = biological target: Neu5Ac(a2-6)Gal(b1-4)GlcNAc(b1-2)Man(a1-3)[Neu5Ac(a2-3)Gal(b1-4)GlcNAc(b1-2)Man(a1-6)]Man(b1-4)GlcNAc(b1-4)GlcNAc
In short: as §1

[31] = biological target: Neu5Ac(a2-6)Gal(b1-4)GlcNAc(b1-2)Man(a1-3)[Neu5Ac(a2-6)Gal(b1-4)GlcNAc(b1-2)Man(a1-6)]Man(b1-4)GlcNAc(b1-4)GlcNAc
In short: as §1

[32] = biological target: Neu5Ac(a2-6)Gal(b1-4)GlcNAc(b1-2)Man(a1-3)[Neu5Ac(a2-6)Gal(b1-4)GlcNAc(b1-2)Man(a1-6)]Man(b1-4)GlcNAc(b1-4)[Fuc(a1-6)]GlcNAc
In short: as §1

[33] = biological target: Neu5Ac(a2-6)Gal(b1-4)GlcNAc(b1-2)Man(a1-6)Man(b1-4)GlcNAc(b1-4)GlcNAc
In short: as §1

[34] = biological target: Neu5Ac(a2-6)Gal(b1-4)GlcNAc(b1-2)Man(a1-6)[Gal(b1-4)GlcNAc(b1-2)Man(a1-3)]Man(b1-4)GlcNAc(b1-4)GlcNAc
In short: as §1

[35] = biological target: Neu5Ac(a2-6)Gal(b1-4)GlcNAc(b1-2)Man(a1-6)[GlcNAc(b1-2)Man(a1-3)]Man(b1-4)GlcNAc(b1-4)GlcNAc
In short: as §1

[36] = biological target: Neu5Ac(a2-6)Gal(b1-4)GlcNAc(b1-2)Man(a1-6)[Man(a1-3)]Man(b1-4)GlcNAc(b1-4)GlcNAc
In short: as §1

[37] = biological target: Neu5Ac(a2-6)Gal(b1-4)GlcNAc(b1-2)[Neu5Ac(a2-6)Gal(b1-4)GlcNAc(b1-4)]Man(a1-3)[GlcNAc(b1-4)][Neu5Ac(a2-6)Gal(b1-4)GlcNAc(b1-2)[Neu5Ac(a2-6)Gal(b1-4)GlcNAc(b1-6)]Man(a1-6)]Man(b1-4)GlcNAc(b1-4)GlcNAc
In short: as §1

[38] = biological target: Neu5Ac(a2-6)Gal(b1-4)GlcNAc(b1-2)[Neu5Ac(a2-6)Gal(b1-4)GlcNAc(b1-4)]Man(a1-3)[GlcNAc(b1-4)][Neu5Ac(a2-6)Gal(b1-4)GlcNAc(b1-4)Man(a1-6)]Man(b1-4)GlcNAc(b1-4)GlcNAc
In short: as §1

[39] = biological target: Neu5Ac(a2-6)Gal(b1-4)GlcNAc(b1-2)[Neu5Ac(a2-6)Gal(b1-4)GlcNAc(b1-6)]Man(a1-6)[Neu5Ac(a2-6)Gal(b1-4)GlcNAc(b1-2)Man(a1-3)][GlcNAc(b1-4)]Man(b1-4)GlcNAc(b1-4)GlcNAc
In short: as §1

[40] = biological target: Neu5Ac(a2-6)Gal(b1-4)GlcNAc(b1-3)Gal(b1-3)GlcNAc
In short: as §1

[41] = biological target: Neu5Ac(a2-6)Gal(b1-4)GlcNAc(b1-3)Gal(b1-4)GlcNAc
In short: as §1

[42] = biological target: Neu5Ac(a2-6)Gal(b1-4)GlcNAc(b1-3)Gal(b1-4)GlcNAc(b1-2)Man(a1-3)[Neu5Ac(a2-6)Gal(b1-4)GlcNAc(b1-3)Gal(b1-4)GlcNAc(b1-2)Man(a1-6)]GalNAc
In short: as §1

B1: CpGal16 (Clavelina picta) (protein)
chain: MAKMITNYVGKRIECIMVATDMMSTVFSLASATGDLPFYINFRQRENSIVMNTRVHGKWQYEKSQSSGGMNFYEPFRLVVEVRPSVFKVTVSTMGEEDGITFNLQYSQITIKPDEIVAMHLGYCNLRSELLVTDL
**Q.** B1 was tested. Which “glycan array binding signal (z-score)” value [1] did it give?
**A.** -0.349

**Q.** What about the “glycan array binding signal (z-score)” value [2] of the same binder?
**A.** -0.325

**Q.** And the “glycan array binding signal (z-score)” value [3]?
**A.** -0.422

**Q.** And the “glycan array binding signal (z-score)” value [4]?
**A.** -0.324

**Q.** And the “glycan array binding signal (z-score)” value [5]?
**A.** -0.266

**Q.** What about the “glycan array binding signal (z-score)” value [6] of the same binder?
**A.** -0.429

**Q.** And the “glycan array binding signal (z-score)” value [7]?
**A.** -0.393

**Q.** What about the “glycan array binding signal (z-score)” value [8] of the same binder?
**A.** -0.51

**Q.** And the “glycan array binding signal (z-score)” value [9]?
**A.** -0.19

**Q.** What about the “glycan array binding signal (z-score)” value [10] of the same binder?
**A.** -0.483

**Q.** And the “glycan array binding signal (z-score)” value [11]?
**A.** 0.159

**Q.** And the “glycan array binding signal (z-score)” value [12]?
**A.** 0.134

**Q.** What about the “glycan array binding signal (z-score)” value [13] of the same binder?
**A.** -0.216

**Q.** What about the “glycan array binding signal (z-score)” value [14] of the same binder?
**A.** -0.373

**Q.** What about the “glycan array binding signal (z-score)” value [15] of the same binder?
**A.** -0.459

**Q.** And the “glycan array binding signal (z-score)” value [16]?
**A.** -0.325

**Q.** And the “glycan array binding signal (z-score)” value (Neu5Ac(a2-3)GalNAc)?
**A.** -0.152

**Q.** What about the “glycan array binding signal (z-score)” value [17] of the same binder?
**A.** -0.258

**Q.** And the “glycan array binding signal (z-score)” value [18]?
**A.** -0.38

**Q.** And the “glycan array binding signal (z-score)” value [19]?
**A.** -0.468

**Q.** And the “glycan array binding signal (z-score)” value [20]?
**A.** -0.325

**Q.** What about the “glycan array binding signal (z-score)” value [21] of the same binder?
**A.** -0.237

**Q.** And the “glycan array binding signal (z-score)” value (Neu5Ac(a2-6)Gal)?
**A.** -0.316

**Q.** And the “glycan array binding signal (z-score)” value [22]?
**A.** -0.52

**Q.** What about the “glycan array binding signal (z-score)” value (Neu5Ac(a2-6)Gal(b1-4)Glc) of the same binder?
**A.** -0.291

**Q.** And the “glycan array binding signal (z-score)” value [23]?
**A.** -0.456

**Q.** What about the “glycan array binding signal (z-score)” value [24] of the same binder?
**A.** -0.459

**Q.** What about the “glycan array binding signal (z-score)” value [25] of the same binder?
**A.** -0.232

**Q.** And the “glycan array binding signal (z-score)” value [26]?
**A.** -0.325

**Q.** And the “glycan array binding signal (z-score)” value [27]?
**A.** -0.373

**Q.** And the “glycan array binding signal (z-score)” value [28]?
**A.** -0.437

**Q.** And the “glycan array binding signal (z-score)” value [29]?
**A.** -0.395

**Q.** What about the “glycan array binding signal (z-score)” value [30] of the same binder?
**A.** -0.252

**Q.** And the “glycan array binding signal (z-score)” value [31]?
**A.** -0.174

**Q.** What about the “glycan array binding signal (z-score)” value [32] of the same binder?
**A.** -0.05

**Q.** What about the “glycan array binding signal (z-score)” value [33] of the same binder?
**A.** -0.39

**Q.** What about the “glycan array binding signal (z-score)” value [34] of the same binder?
**A.** -0.473

**Q.** What about the “glycan array binding signal (z-score)” value [35] of the same binder?
**A.** -0.424

**Q.** What about the “glycan array binding signal (z-score)” value [36] of the same binder?
**A.** -0.382

**Q.** And the “glycan array binding signal (z-score)” value [37]?
**A.** -0.407

**Q.** And the “glycan array binding signal (z-score)” value [38]?
**A.** -0.326

**Q.** What about the “glycan array binding signal (z-score)” value [39] of the same binder?
**A.** -0.39

**Q.** And the “glycan array binding signal (z-score)” value [40]?
**A.** -0.382

**Q.** And the “glycan array binding signal (z-score)” value [41]?
**A.** -0.442

**Q.** What about the “glycan array binding signal (z-score)” value [42] of the same binder?
**A.** -0.175

Source: the supplement of paper PMC8728848
